Data from the RNAGym collection of RNA variant scans (doi:10.7554/elife.90254).
Read counts are not given, so values of variants with three or more changes are uncertain.

B1: LINE1-full (parent)
chain: UACGUAGGUGGUUUUCCCCUGAUAGUGCUAAGGGGGCCUGGAAGUUUGGACUGGGCAGAGCUCAACACAGCGUGGCAAAGUGGCUGUGGCUAGACUGCCUCUCUGGAUUCCUCGUCACUCAGCAGGGCAUCUCUGAGAGAAAUGCC

Variants of: B1
Experiment: self-cleavage, relative activity (ratio to wild type); higher = more cleavage; in vitro, sequencing; the parent is a self-cleaving ribozyme
For UACGUAGGUGGUUCUCCCCUGAUAGUGCUAAGGGGGCCUGGAAGUUUGGACUGGGCAGAGCUCAACACAGCGCGGCAAAGUGGCUGUGGCUAGACUGCCUCUCUGGAUUCCUCGUCACUCAGCAGGGCAUCCCUGAGAGGAAUGCC [U14C U73C U132C A140G], the self-cleavage was 0.77. For UACGUGGGUGGUUUUCCCCUGAUAGUGCUUAGGGGCCCUGGAAGUUUGGACUGGGCAGAGCUCAACACAGCGUGGCAAAGUGGCUGUGGCUAGACAGCCUCUCUGGAUUCCUCGUCACUCAGCAGGGCAUCUCUGAGAGAAAUGCC [A6G A30U G36C U96A], the self-cleavage was 0.33. Work on UACGUAGGUGGUUUCCCCCUGAUAGUGCUAAGGGGGCCAGGAAGUUUGGACUGGGCAGAGCUCAACACAGCGCGGCAAAGUGGCUGUGGCUAGACUGCCUCUCUGGAUUCCUCGUCUCUCAGCAGGGCAUCUCUGAGAGAAAUGCC [U15C U39A U73C A117U] yielded a self-cleavage of 1.15. UACGUAGGUGGUUCUCCCCUGAUAGUGCUAAGGGGGCCUGGAAGUUUGGACUGGGCAGAGCUCAACACAGCGUGGCAAAGUUGCUGUGGCUAGACUGCCUCUCUGGAUUCCUCGUCACUCAGCAGGGCAUCUCUGAGAGAGAUGCC [U14C G82U A141G] showed a self-cleavage of 2.45. With UACGUAGGUGGUUUUCCCCAGAUAGUGCUAAGGGGGCCUGGAAGUUUGGACUGGGCAGAGCUCAACACGGCGCGGCAAAGUGGCUGUGGCUAGACUGCCUCUCUGGAUUCCUCGUCACUCAGCAGGGCAUCUCUGAGAGAAAUGCC [U20A A69G U73C] the self-cleavage was 1.53. UGCGUAGGUGGUUCUCCCCCGAUAGUGCUAAGGGGGCCUGGAAGUCUGGACAGGGCAGAGCUCAACACAGCGAGGCAAAGUGGCCGUGGCUAGACUGCCUCUCUGGAUUCCUCGUCACUCAGCAGGGCAUCUCUGAGAGAAAUGCC [A2G U14C U20C U46C U52A U73A U85C] gave a self-cleavage of 0.34. Variant UACGUAGGUGGUUUUCCCCUAAUAGUGCUAAGGGGGCCUGGAAGUUUGGACUGGGCAGAGCUCAACACAGCGGGGCAAAGUGGCUGUGGCUAGACUGCCUCUCUGGAUUCCUCGUCACUCAGCAGGGCAUUUCUGAGAGAAAUGCC [G21A U73G C131U] has a self-cleavage of 0.57. For UACGUAGGUGGUUUUCCCCUGAUAGUGCUAAGGGGGCCUGGAAGUUUGGACUGGGCAGAGCUCAACACAGAGUGGCAAAGUGGCUGUGGCUAGACUGCCUCUCUGGAUUCCUCGUCACUCAGCGGGGCAUCUCUGGGAGAAAUGCC [C71A A124G A136G], the self-cleavage was 0.23. Variant UACGUAGGUGGUUUUCCCCUGAUAGUGCUAGGGGGGCCUGGAAGUUUGGACUGGGCAGAGCUCAACACAGCGUGGCAAAGUGGCUGUGGCCAGACUGCCUCUCAGGAUUCCUCGUCACUCAGCAGGGCAUCUCUGAGAGAAAUGCC [A31G U91C U104A] has a self-cleavage of 1.13. UAUGUAGGUGGUUUUCCCCUGAUAGUGCUAAGGGGGCCUGGAAGUUUGGACUAGGCAGAACUCAACACAGCGUGGCAAAGUGGCUGUGGCUAGACUGCCUCUCUGGAUUCCUCGUCACUCAGCAGGGCAUCACUGAGAGAAAUGCC [C3U G53A G60A U132A] showed a self-cleavage of 0.04. For UACGUAGGUGGUUCUCCCCUGAUAGUGCUAAGGGGGCCUGGAAGUUUGGACUGGGCAGAGCUCAACACAGCGUGGCAAAGUGGCUGUGGCUAGACUGCCGCUCUGGAUUCCUCGUCACUCAGCAGGGCACCUCUGAGAGAAAUGCC [U14C U100G U130C], the self-cleavage was 0. With UACGUAGGUGGUUCUCCCCUGAUAGUGCUAAGGGGGCCUGGAAGUUGGGACUGGGCAGAGCUCAACACAGCGUGGCUAAGUGGCUGUGGCUAGACUGCCUCUCUGGAUUCCUCGUCACUCAGCAGGGCAUCUCUGAGAGAAAUGCC [U14C U47G A77U] the self-cleavage was 1.23. For UACGUAGGUGGUUUCCCCCUGAUAGUGCUAAGGGGGCCUGGAAGUUUGGAAUGGGCAGAGCUCAACACAGCUUGGCAAAGUGGCUGUGGCUAGACCGCCUCUCUGGAUUCCUCGUCACUCAGCAGGGCAUCUCUGAGUGAAAUGCC [U15C C51A G72U U96C A138U], the self-cleavage was 0.16. Work on UACGUAUGUGGUUUUCCCCUGAUAGUGCUGAGGGGGCCUGGAAGUUUGGACUGGGCAGAGCUCAACACAGCGUGGCAAAGUGGCUGUGGUUAGACUGCCUCUCUGGACUCCUCGUCACUCAGCAGGGCAUCUCUGAGAGAAAUGCC [G7U A30G C90U U108C] yielded a self-cleavage of 0.04. In the case of CACGUAGGUGGUUUUCCCCUGAUAGUGCUAAGGGGGCCUGGAAGAUUGGACUGGGCAGAGCUCAUCACAGCGUGGCAAAGUGGCUGUGGCUAGACUGCCUCUCUGGAUUCCUCGUCACUCAGCAGGGCACCUCUGAGAGAAAUGCC [U1C U45A A65U U130C], the self-cleavage is reported as 0.18. UACGUAGGUGGUUUUCCCCUGAUAGUGCUAAGAGGGCCGGGAAGUUUGGACUGGGCAGAGCUCGACACAGCGUGGCAAAGUGGCUGUGGCUAGACUGCCUCUCUGGAUUCCUCGUCACUCAGCAGGGCAUCUCUGAGAGAAAUGCC [G33A U39G A64G] showed a self-cleavage of 0.29. For UACGUAGGUGGUCUUCCCUUGAUAGUGCUAAGGGGGCCUGGAAGUUUGGACUGGGCAGGGCUCAACACAGCAUGGCAAAGUGGCUGUGGCUAGACUGCCUCUCUGGAUUCCUCGUCACUCAGCAGGGCAUCUCUGAGAGAAAUGCC [U13C C19U A59G G72A], the self-cleavage was 0.24. For UUCGUAGGUGGUUUUCCCCCGAUAGUGCUAAGGGGGCCUGGAAGUUUGGGCUGGGCAGUGCUCAACACAGCGUGGCAAAGUGGCUGUGGCUAGACUGCCUCUCUGGAUUCCUCGUCACUCAGCAGGGCAUCUCCGAGAGAAAUGCC [A2U U20C A50G A59U U134C], the self-cleavage was 1.31. UACGUAGGUGGUUUUCCCCUGAUAGUGCUAAGGGGGCCUGGAAGUUUGGACUGGGCGGAGCUCAACACAGCGUGGCAAGGUGGCUGUGGCUAGACUGCCUCUCUGGAUUCCUCGUCACUCAGCAGGGCAUCCCUGAGAGAAAUGCC [A57G A79G U132C] gave a self-cleavage of 1.99. Work on UACGUAGGUGGUUUUCCCCUGAUAGUGCUAAGGGGGCCUGGAAGUUUGGACUGGGCAGAGCUCAACACAGCGUGGCAGAGUGGCUGUGGCUAGACUGCCUCUCUGGAUUCCUCGUCACUCAGCAGGGCAUCUCGGAGAGAAAUGUC [A78G U134G C145U] yielded a self-cleavage of 1.32. For UACGUAGGCGGUUUUCCCCUGAUAGUGCCAAGGGGGCCUGGAAGUUUGGACUGGGCAGAGCUCAUCACAGCGUGGCAAAGUGGCUGUGGCUAGACUGCCUCUCUGGAUUCCUCGUCACUCAGCAGGGCAUCUCUGAGAGAAAUGCC [U9C U29C A65U], the self-cleavage was 0.32. Variant UACGUCGGUGGUUUUCCCCUGAUAGUGCUAAGGGGGCCUGGAAGUUUGGACUGGGCGGAGCUCAACACAGCGUGGCGAAGUGGCUGUGGCUAGACUGCCUCUCUGGAUUCCUCGUCACUCAGCAGGGCAUCUCUGAGAGAAAUGCC [A6C A57G A77G] has a self-cleavage of 1.02. UACGUAGGUGGUUUUCCCCUGAUAGUGCUAAGGGGGCCUGGAAGUUUGGACUGGGCAGAGCACAACACGGCGUGGCAAAGUGGCCGUGGCUAGACUGCCUCUCUGGAUUCCUCGUCACUCAGCAGGGCAUCUCUGAGAGAAAUGCC [U62A A69G U85C] gave a self-cleavage of 0.34. With UACGUAGGUGGUUUUCCCCUGAUAGUGCUAAGGGGGCCUGGAAGUUUGGACUGGGCAGAGCUCAACACAGCGUGGCAAAGUAGCUGUGGCUAGACUGCCUCUCUGGAUUCCUCGUCACUCAGCAGGGCAUCUCUGGGAGGAAUGCC [G82A A136G A140G] the self-cleavage was 1.88. Work on UACGUAGGUGGUUUUCCCCUGAUAGUGCUAAGGGGGCCUGGAGGCUUGGACUGGGCAGAGCUCAACACAGCGUGGCAAAGUGGCUGCGGCUAGACUGCCUCUCUGGAUUCCUCGUCACUCAGCAGGGCAUCUCUGAGAGAAAUGCC [A43G U45C U87C] yielded a self-cleavage of 0. In the case of UACGUAGGUGGUUUUCCCCUGAUAGUGCUAAGGGAGCCUGGAAGUUUGGACUGGGCAGAGCUCAACACAGCGUGGCAAGGUGGCUGUGGCUAGACUGCCUCUCUGGGUUCCUCGUCACUCUGCAGGGCAUCUCUGAGAGAAAUGCC [G35A A79G A107G A121U], the self-cleavage is reported as 0.93. UACGUAGGUGGUGUUCCCCUGAUAGUGCUAAGGGGGCCUGGAAGUUUGGACUGGGCAGAGCUCAACACAGCGCGGCAAAGUGGCUGUGGCUAGUCUGCCUCUCUGGAUUCCUCGUCACUCAGCAGGGCAUCUCUGAGAGAAAUGCC [U13G U73C A94U] gave a self-cleavage of 0.44. Work on UACGUUGGUGGUUUUCCCCUGAUAGUGCUAAGGGGGCCUGGAAGUCUGGACUGGGCAGAGCUCAACGCAGCGUGGCAAAGUGGCUGUGGCUAGACUGCCCCUCUGGAUUCCUCGUCACUCAGCAGGGCAUCUCUGAGAGAAAUGCC [A6U U46C A67G U100C] yielded a self-cleavage of 0.84. UACGUAGGCGGUUUUCCCCCGAUAGUGCUAAGGGGGCCUGGAAGUUUGGACUGGGCAGAGCUCAACACAGCGUGGCAAAGUGGCUGUGGCUAGACUGCCUCUCUGGAUUCCUCGUCGCUCAGCAGGGCAUCUCUGAGAGAAAUGCC [U9C U20C A117G] showed a self-cleavage of 1.29. In the case of UACGUGGGUGGUUUUCCCCUAAUAGUGCUAAGGGGGCCUGGAAGAUUGGACCGGGCAGAGCUCAACACAGCGUGGCAAAGUGGCUGUGGCUAGACUGCCUCUCUGGAUUCCUCGUCACUCAGCAGGGCAUCUCUGAGAGAAAUGCC [A6G G21A U45A U52C], the self-cleavage is reported as 0.86. UACGUAGGUGGUUUUCCCCUGAUAGUGCUAAGGGGGCCUGGAAGUUCGGACUGGGCAGAGCCCAACACAGCGUGGCAAAGUGGCUGUGGCUAGACUGCCUCUUUGGAUUCCUCGUCACUCAGCAGGGCAUCUCUGAGAGAAAUGCC [U47C U62C C103U] gave a self-cleavage of 0.12. For UACGUAGGUGGUCUUCCCCUGAUAGUGCUAAGGGGGCCUGGAAGUUUGGACUGGGCAGAGCUCAACACAGCGUGGCAAAGUGGCUGUGGCUAGGCUGCCUCUCUGGAUUCCUCGUCACUCAGCAGGGCAUCUCUGAGAGAAGUGCC [U13C A94G A142G], the self-cleavage was 0. UACGUAGGUGGUUUUCCCCUGAUGGUGCUAAAGGGGCCUGGAAGUAUGGACUGGGCAGAGCUCAACACAGCGUGGCAAGGUGGCUGUGGCUAGACUGCCUCUCUGGAUUCCUCGUCACUCAGCAGGGUAUCUCUGAGAGAAAUGCC [A24G G32A U46A A79G C128U] gave a self-cleavage of 1.06. Work on UACGUUGGCGGUUUUCCCCGGAUAGUGCUAAGGGGGCCUGGAAGUUUGGACAGGGCAGGGCUCAACACAGCGUGGCAAAGUGGCUGUGGCUAGACUGCCUCUCCGGAUUCCACGUCACUCAGCAGGGCAUCUCUGAAAGAAAUGCC [A6U U9C U20G U52A A59G U104C U112A G137A] yielded a self-cleavage of 1.84. In the case of UACGUAGGUGGUUUUCCCCUGAUAGUGCUAAGGGGGCCUGGAAGUUUGGACUGGGCAGAGCUCUACACAGCGCGGCAAAGUGGCUGUGGCUAGACUGCCUCUCUGGAUUCCUCGACACUCAGCAGGGCAUCUCUGAGAGAAAUGCC [A64U U73C U115A], the self-cleavage is reported as 0.48. For UACGUAGGUGGUUUUCCCCUGAUAGUGCUAAGGGGGCCUGGAAGUUUGGACUGGGCAGAGCCCAACACAGCGUGGCAAAGUGGCUGUGGCUAGACAGCCUCCCUGGCUUCCUCGUCACUCAGCAGGGCAUCUCUGAGAGAAAUGCC [U62C U96A U102C A107C], the self-cleavage was 0. Work on AACGUAGGUGGUUCUCCCCUGAUAGUGCUAAGGGGGCCUGGAAGUUUGGGCUGGGCAGAGCUCAACACAGCGUGGCAAAGUGGCUGUGGCUAGACUGCCUCUCUGGAUACCUCGUCACUCAGCAGGGCAUCUCUGAGAGAAAUGCC [U1A U14C A50G U109A] yielded a self-cleavage of 1.37. UACGUAGGCGGUUUUCCCCUGAUAGUGCUAAGGGGGCCUGGAAGUUUGGACUGGACAGAGCUCAACACAGCGUGGCAAAGUGGCUGUGGCUAGACUGCCUCUCUGGACUCCUCGUCACUCAGCAUGGCUUCUCUGAGAGAAGUGCC [U9C G55A U108C G125U A129U A142G] gave a self-cleavage of 0.22. Work on UACGUAGGUGGUUUUCCCCUGUUAGUGCUAAGGGGGCCUGGAAGUUUGGGCUGGGCAGAGCUCAACACAGCGUGGCAAAGUGGCUGUGGCUAGACUGCCUCUCUGGAUUCCUCGUCACUCAGCAGGGCAUCUCUGAGAGAAGGGCC [A22U A50G A142G U143G] yielded a self-cleavage of 0.64.
